# From PubChem BioAssay AID1030 (National Center for Advancing Translational Sciences (NCATS), 2008)
# Among all 220,000 compounds or so, about 16,000 (7.3%) were called active. Inconclusive means that the source gave no clear call. Such entries were picked first, then a sample of the others. Calls come from the whole dose curve; as a rule, active = well fitted inhibition curve with a large enough effect (not every such curve was filed as active); inconclusive = small, poorly fitted or top-dose-only effect, or another doubt; inactive = no such curve, though single readings can be large or run the other way. Potencies of inconclusive entries are left out as doubtful fits.
# Target: Aldehyde dehydrogenase 1A1 (Homo sapiens) (UniProt P00352)
# UniProt P00352, sequence (P00352 whole entry, looked up): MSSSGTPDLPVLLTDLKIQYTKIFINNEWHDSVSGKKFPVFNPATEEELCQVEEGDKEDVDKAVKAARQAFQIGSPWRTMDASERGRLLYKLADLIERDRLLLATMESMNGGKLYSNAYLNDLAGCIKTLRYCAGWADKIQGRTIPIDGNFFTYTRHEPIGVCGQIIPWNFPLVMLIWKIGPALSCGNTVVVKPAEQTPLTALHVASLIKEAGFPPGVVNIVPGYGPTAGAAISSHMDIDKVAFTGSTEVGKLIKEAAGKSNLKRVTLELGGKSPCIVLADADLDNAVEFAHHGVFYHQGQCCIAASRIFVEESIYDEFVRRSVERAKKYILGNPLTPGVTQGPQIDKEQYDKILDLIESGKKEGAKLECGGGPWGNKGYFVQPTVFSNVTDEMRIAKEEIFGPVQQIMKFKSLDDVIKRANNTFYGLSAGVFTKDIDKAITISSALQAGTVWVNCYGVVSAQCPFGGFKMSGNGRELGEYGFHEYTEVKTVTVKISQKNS
# Experiment: qHTS Assay for Inhibitors of Aldehyde Dehydrogenase 1 (ALDH1A1);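 for activity, negative = inhibition: plate controls were no enzyme wells and a reference inhibitor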
# Conditions: Purified ALDH1A1, NADH fluorescence, propionaldehyde substrate; series mostly up to 75.3 µM; activity, negative = inhibition: at the top concentration
# Potency is the fitted concentration of half-maximal effect; tags give direction and shape of the fitted curve.
Compound,"activity, negative = inhibition",Potency
CCCc1cc2c(n1CCc1ccc(Cl)cc1)C(C)C1CN(C(=O)c3ccccc3)C(C)(C(=O)OC)C21 (stereo not given),inactive: -10.9%,
Cc1ccccc1OCCNC(=O)/C=C/c1ccc([N+](=O)[O-])cc1,,"inconclusive [inhibitor, single point]"
Brc1ccc(-c2nn3c(-c4ccccn4)nnc3s2)o1,,"inconclusive [inhibitor, partial curve]"
CC(=O)c1ccc(N(C)C)c2c(N(C)C)cccc12,inactive: 4.37%,
COc1ccc(Cl)cc1NC(=O)COC(=O)/C=C/c1c(C)nn(C2CCS(=O)(=O)C2)c1Cl (stereo not given),,active: 25.1 µM
C/C(=N\Nc1ccccc1)c1c(O)cc(C)oc1=O,,active: 14.1 µM
CCOc1ccc(C2NC(=O)c3sc(=S)n(-c4ccccc4)c3N2)cc1 (stereo not given),,"inconclusive [inhibitor, single point]"
COCCn1c(=O)c(-c2ccc(F)cc2)nc2cnc(Oc3ccccc3)nc21,,"inconclusive [inhibitor, single point]"
CC(=O)Nc1cc2c(ccc3ccccc32)oc1=O,,"inconclusive [inhibitor, partial curve]"
O=C(Nc1ccc(S(=O)(=O)Nc2nccs2)cc1)c1ccc(F)c(S(=O)(=O)N2CCOCC2)c1,,active: 5.01 µM
COc1ccc(C2Sc3nncn3N2Cc2ccc(C#N)cc2)cc1 (stereo not given),,active: 10 µM
C=CCS/C(N)=N\N=C\c1cc(Br)cc([N+](=O)[O-])c1O,,active: 7.08 µM
CC(C)CNC(=O)CCc1nc(-c2ccccc2)no1,,"inconclusive [inhibitor, single point]"
COc1cc2cc(C(c3nnnn3C(C)(C)C)N3CCC(C)CC3)c(=O)[nH]c2cc1OC (stereo not given),,"inconclusive [inhibitor, partial curve]"
COc1ccc(NC(=O)c2oc3ccccc3c2C)c(OC)c1,,"inconclusive [inhibitor, single point]"
CCn1nnc(NC(=O)c2cccc(-c3cc4ccccc4oc3=O)c2)n1,,"inconclusive [inhibitor, partial curve]"
CCN(CC)S(=O)(=O)c1cccc(NC(=O)c2cc(=O)[nH]c3ccccc23)c1,inactive: -3.07%,
CCCCOP(=O)(c1ccc(N(C)C)cc1)C(O)c1cccnc1 (stereo not given),inactive: 6.73%,
COc1cccc(NC(=O)CSc2ccc3nnc(-c4ccncc4)n3n2)c1,,"inconclusive [inhibitor, single point]"
COc1ccccc1C(=O)Nc1ccc(C(=O)N2CCCC2)cc1,inactive: -4.56%,
CCc1cccc2c1NC(=O)C2(O)CC(=O)c1cccs1 (stereo not given),,active: 14.1 µM
CCCCn1c(SCc2nc3ccccc3s2)nc2ccccc2c1=O,inactive: -4.93%,
COc1ccc2c(c1)c1ncn(CCc3ccccc3)c(=O)c1n2C,,"inconclusive [inhibitor, partial curve]"
CCN(CC)S(=O)(=O)c1cc(NC(=O)c2ccc(Br)s2)ccc1C,inactive: 15.4%,
CC1(C)Cc2ccccc2C2=NNC(=O)C2=N1,inactive: 1.87%,

Compound,"activity, negative = inhibition",Potency
Cn1nc(C(=O)Nc2sc3c(c2C#N)CCCC3)ccc1=O,,active: 2.24 µM
Cc1ccc(NC(=S)N(CCN2CCOCC2)Cc2cc3cc4c(cc3[nH]c2=O)OCO4)cc1,,"inconclusive [inhibitor, single point]"
Cc1cc(C)c2[nH]c(=O)c(C(c3nnnn3C3CCCC3)N3CCOCC3)cc2c1 (stereo not given),,"inconclusive [inhibitor, partial curve]"
N/C(=N\OC(=O)c1ccc2ccccc2c1)c1ccncc1,inactive: 1.53%,
CC(C)OC(=O)C1=C(N)N2C(=O)CSC2=C(C(=O)OC(C)C)C1,,"inconclusive [inhibitor, single point]"
O=C(N/N=C/C1CC2CCC1C2)c1ccc2c(c1)OCO2 (stereo not given),inactive: -13.5%,
CCCCOc1ccc(C(=O)NCc2ccco2)cc1,inactive: 6.18%,
N#Cc1ccc(-c2csc(NC(=O)c3ccc(S(=O)(=O)N4CCc5ccccc5C4)cc3)n2)cc1,inactive: 0.805%,
Cc1[nH]nc(N=CC2=C(O)CC(c3ccco3)CC2=O)c1-c1ccc(Cl)cc1 (stereo not given),,"inconclusive [inhibitor, single point]"
Cc1c(Cc2ccccc2)sc(/N=C/c2ccc3ccccc3c2)c1C(N)=O,,"inconclusive [inhibitor, partial curve]"
COc1ccc(Cl)cc1C(=O)CSc1nnnn1C1CCCCC1,,active: 5.01 µM
CSc1nc2nc(C)cc(-c3ccccc3)n2n1,,"inconclusive [inhibitor, single point]"
Cc1cc(-c2nnc(CCC(=O)N(CC3CCC3)CC3CCCO3)o2)no1 (stereo not given),inactive: 10.2%,
Cc1cccc(NC(=O)COc2cccc3c2CCN(C)C3=O)c1C,,"inconclusive [inhibitor, single point]"
CC(C)c1[nH]nc2c1C(c1ccc(OC(=O)c3ccco3)cc1)C(C#N)=C(N)O2 (stereo not given),,active: 25.1 µM
CCN(CC)S(=O)(=O)c1cccc(-c2nnc(SCC(=O)NC3CCCCCCC3)n2N)c1,inactive: -1.98%,
CC1CCCCC1NC(=O)C1CCN(C(=O)c2sccc2-n2cccc2)CC1 (stereo not given),,active: 1.12 µM
CCOC(=O)c1c(NC(=O)c2ccc(-n3cnnn3)cc2)sc2c1CCCC2,,"inconclusive [inhibitor, partial curve]"
C=CCn1c(SCc2csc(C)n2)nc2sc3c(c2c1=O)CCCC3,,"inconclusive [inhibitor, partial curve]"
COc1ccc2[nH]c3c(NCCN4CCCCC4)ncnc3c2c1,,"inconclusive [inhibitor, single point]"
O=C(CN1C(=O)S/C(=C\c2ccc(F)cc2)C1=O)Nc1cccc(S(=O)(=O)NCc2ccco2)c1,inactive: 4.99%,
COc1ccccc1CNC(=O)COc1ccc([N+](=O)[O-])cc1,,"inconclusive [inhibitor, partial curve]"
CCS(=O)(=O)NCc1ccc2[nH]c3c(c2c1)CCCC3,,"inconclusive [inhibitor, single point]"
Cc1ccc(NC(=O)c2csc3c2CCCC3)cc1,,active: 20 µM
COC(=O)C1=C(C)N(CCc2ccc(OC)c(OC)c2)C(=O)/C1=C\N(C)C,,active: 14.1 µM

Compound,"activity, negative = inhibition",Potency
CCc1ccc(NC(=O)CSc2nnc(CC)c(CC)n2)cc1,,"inconclusive [inhibitor, single point]"
O=C(O)CN1C(=O)SC(Nc2ccccc2C(=O)O)C1=O (stereo not given),,"inconclusive [inhibitor, partial curve]"
CCOc1ccccc1NC(=S)NC(=O)CCCOc1ccc(Cl)cc1Cl,,active: 11.2 µM
CCN(CC)c1ccc(/C=N/N2C(=O)c3ccccc3C2=O)c(O)c1,,"inconclusive [inhibitor, single point]"
CC1CCN(C(=O)C(C)c2ccc([N+](=O)[O-])cc2)CC1 (stereo not given),inactive: -2.78%,
CC(=O)Nc1ccccc1-c1nc2ccc(C(=O)N3CCN(c4ccccc4)CC3)cc2[nH]c1=O,,active: 28.2 µM
CCOC(=O)C1(Cc2ccc(OC)cc2)CCN(C(=O)C2CCCO2)CC1 (stereo not given),,"inconclusive [inhibitor, single point]"
O=C(O)c1ccc2c3c(cccc13)C(=O)N(c1ccccc1)C2=O,,"inconclusive [inhibitor, single point]"
COc1cc(O)c2c(=O)cc(-c3ccccc3)oc2c1,,inactive
CC1(C)C(C=C(Cl)Cl)C1C(=O)Nc1ccc([N+](=O)[O-])cc1 (stereo not given),,"inconclusive [inhibitor, single point]"
CC(C)=CCC[C@]1(C)[C@@H](CC=C(C)C)C[C@@]2(CC=C(C)C)C(=O)[C@]1(C(=O)C(C)C)C(=O)C(CC=C(C)C)=C2O,inactive: -11.6%,
C=CCNC1=C(Cl)C(=O)c2ccccc2C1=O,,"inconclusive [inhibitor, single point]"
O=C(Nc1ccccc1)OC1CCC2CC1CCC2OC(=O)Nc1ccccc1 (stereo not given),inactive: -2.46%,
O=C(Oc1ccc(F)cc1C(=O)/C=C/c1cccs1)c1cccc([N+](=O)[O-])c1,inactive: -4.28%,
COc1ccc(/C=C2/SC(c3ccc(C)cc3)=NC2=O)cc1OC,,"inconclusive [inhibitor, single point]"
O=[N+]([O-])c1ccccc1S(=O)(=O)N1CCN(Cc2ccsc2)CC1,,"inconclusive [inhibitor, single point]"
Cc1cccc(C)c1NC(=S)N(c1ccccc1)C(C)C,inactive: 7.55%,
C/C(=N/NC(=O)c1ccccc1)c1ccc(NC(=O)C(F)(F)F)cc1,,"inconclusive [inhibitor, single point]"
CCOC(=O)N1CCN(C(=O)c2csc3c2CCCCC3)CC1,,"inconclusive [inhibitor, single point]"
CC(=O)c1ccc(NC(=O)CNCC(c2ccccc2)N(C)C)cc1 (stereo not given),,"inconclusive [inhibitor, single point]"
COC(=O)Nc1ccc([N+](=O)[O-])cc1OC,inactive: -2.7%,
c1ccc(N2CCOCC2)c(Nc2nc3ccccc3n3cnnc23)c1,,"inconclusive [inhibitor, single point]"
CC1(C(=O)N(CC(=O)NC2CCCC2)C2CCCC2)CC(=O)N=C2C=CC=CN21 (stereo not given),,"inconclusive [inhibitor, partial curve]"
COc1cccc(N2CC(C(=O)Nc3nnc(SCc4cccnc4)s3)CC2=O)c1 (stereo not given),,"inconclusive [inhibitor, single point]"
O=C(c1ccco1)N1CCN(CCOc2ccccc2)CC1,,"inconclusive [inhibitor, single point]"
